Some of the results follow.

The text below walks through data of the antibiotic and cytotoxicity screens of Wong et al. (2023).

The assay deals with HSkMC (human skeletal muscle cells). Put plainly: cytotoxicity call (relative viability < 0.9). The following applies: 10 µM.
For `COCCOC(=O)N1C(=O)[C@@]2(c3cc(C#Cc4ccc(OC)cc4)ccc31)[C@H](C(=O)N1CCc3cc(OC)c(OC)cc3C1)[C@H]1C(=O)O[C@H](c3ccccc3)[C@H](c3ccccc3)N1[C@@H]2c1ccccc1OCCO`, the cytotoxicity call is “inactive”. Regarding `O=c1cccc(C=Cc2ccc3c(c2)OCO3)o1` [6-(3,4-METHYLENEDIOXYSTYRYL)-alpha-PYRONE ], the cytotoxicity call is “inactive”.

`Cn1nnnc1SCC(=O)Nc1ncccn1`: the cytotoxicity call is “inactive”. For the molecule `COc1ccc(CN(C)C[C@@H]2OCCCC[C@@H](C)Oc3ccc(NC(=O)NC4CCCCC4)cc3C(=O)N([C@@H](C)CO)C[C@@H]2C)cc1`, the cytotoxicity call is “inactive”. For `CC12CCCC(O)(C1)C1CC(C)(C)C1CC2` (stereo not drawn) [beta-CARYOPHYLLENE ALCOHOL ], the cytotoxicity call is “inactive”.

Regarding `CC(=O)Oc1cccc(C)c1` [meta-CRESYL ACETATE ], the cytotoxicity call is “inactive”.

As to `CCC=CCC=CCC=CCC=CCC=CCCCC(=O)OCC` [OMEGA-3-ACID ESTERS (EPA shown) ], the cytotoxicity call is “inactive”. To `C[C@H](CO)N1C[C@H](C)[C@@H](CN(C)S(=O)(=O)c2ccc(F)cc2)Oc2ncc(Br)cc2C1=O` belongs “inactive”; to `Cc1c(C)c2c(c(C)c1O)CCC(C)(CCCC(C)CCCC(C)CCCC(C)C)O2` (stereo not drawn) [alpha-TOCHOPHEROL [4 mM] ], “inactive”; to `CC1(C)CCC2(C)CCC3(C)C(=CCC4C5(C)CCC(O)C(C)(C)C5CCC43C)C2C1` (stereo not drawn) [beta-AMYRIN ], “inactive”.

Take `C[C@@H]1CCCCO[C@H](CN(C)C(=O)Nc2ccc3c(c2)OCO3)[C@@H](C)CN([C@H](C)CO)C(=O)c2cc(NC(=O)Nc3ccc(F)cc3)ccc2O1`: the cytotoxicity call was “inactive”. To `CNC1C(OC2C(OC3C(O)C(O)C(NC(=N)N)C(O)C3NC(=N)N)OC(C)C2(O)C=O)OC(CO)C(O)C1O.O=S(=O)(O)O` (stereo not drawn) [STREPTOMYCIN SULFATE [5mM; 10% aq DMSO + 5mM ethanolamine] ] belongs “inactive”; to `CC(=O)Oc1c(C)c(C)c2c(c1C)CCC(C)(CCCC(C)CCCC(C)CCCC(C)C)O2` (stereo not drawn) [alpha-TOCHOPHERYL ACETATE [4mM] ], “inactive”. The entry for `C[C@H](CO)N1C[C@H](C)[C@@H](CN(C)CC2CCCCC2)Oc2ccc(NS(=O)(=O)c3cn(C)cn3)cc2CC1=O` is “inactive”; for `NNC(=O)CCCCCCC(=O)O` it is “inactive”; for `C[C@H]1CCCCO[C@@H](CN(C)Cc2ccc(C(F)(F)F)cc2)[C@@H](C)CN([C@@H](C)CO)C(=O)c2cc(NC(=O)Nc3ccccc3)ccc2O1` it is “active”. To `CCCN(C)C[C@H]1OCCCC[C@@H](C)Oc2ccc(NC(=O)Nc3ccccc3)cc2C(=O)N([C@@H](C)CO)C[C@H]1C` belongs “inactive”; to `O=C1c2c(O)cc(CO)cc2C(OC2OC(CO)C(O)C(O)C2O)c2cccc(OC3OC(CO)C(O)C(O)C3O)c21` (stereo not drawn) [CASANTHRANOL [cascaroside A shown] ], “inactive”. Turning to `CC(CCC(=O)O)C1CCC2C3CC(O)C4CC(O)CCC4(C)C3CCC12C` (stereo not drawn) [alpha-HYDROXYDEOXYCHOLIC ACID ], the cytotoxicity call was “inactive”. Take `CO[C@@H]1CN(C)C(=O)c2cc(NS(=O)(=O)CC(F)(F)F)ccc2OC[C@@H](C)N(Cc2nccs2)C[C@H]1C`: the cytotoxicity call was “inactive”. On to `COc1ccc(S(=O)(=O)Nc2ccc3c(c2)C(=O)N([C@H](C)CO)C[C@@H](C)[C@@H](CN(C)S(C)(=O)=O)O3)cc1`, for which the cytotoxicity call was “inactive”. For `C[C@H](CO)N1C[C@H](C)[C@@H](CN(C)Cc2ccc(C(=O)O)cc2)Oc2ccc(NC(=O)CCCN(C)C)cc2C1=O`, the cytotoxicity call was “inactive”. Turning to `Cn1cnc(S(=O)(=O)N2C[C@H](O)COC[C@H]3O[C@H](CC(=O)NC4CCCC4)CC[C@@H]32)c1`, the cytotoxicity call is “inactive”. As for `COc1ccc(NC(=O)N(C)C[C@H]2OCCCC[C@@H](C)Oc3ccc(NC(=O)CCC(F)(F)F)cc3C(=O)N([C@H](C)CO)C[C@@H]2C)cc1`, the cytotoxicity call is “inactive”.

As to `CC(C=CC=C(C)C=CC1=C(C)CCCC1(C)C)=CC=CC=C(C)C=CC=C(C)C=CC1=C(C)CCCC1(C)C` [beta-CAROTENE [2mM] ], the cytotoxicity call was “inactive”.

`Cl.NCCCC(=O)O` [gamma-AMINOBUTYRIC ACID HYDROCHLORIDE ]: the cytotoxicity call is “inactive”. `CC(C)C#Cc1ccc2c(c1)O[C@H](CN(C)C(=O)c1cnccn1)[C@H](C)CN([C@@H](C)CO)S2(=O)=O`: the cytotoxicity call was “inactive”. For the molecule `CN(C)CC(=O)N[C@H]1C=C[C@H](CC(=O)O)O[C@H]1CO`, the cytotoxicity call is “inactive”.
